# Hit rate of the full screen: of about 52,000 compounds, about 4,300 (8.3%) were called active. Cut-off read from the data, not from the text of the source: active = survival mostly below about 52% (no sharp cut-off); inactive = mostly above about 56%. The list shows a part of the results.
# Test system: DeltatarO mutant
# Assay: S. aureus survival, RN4220 and DeltatarO strains – OD600, teichoic acid synthesis inhibitors, primary screen (AID 463173)
# Conditions: S. aureus RN4220 wild type/DeltatarO growth, OD600, 18 h, hits give low values, screened at 18.75 µg/mL (by protocol)
row,Compound,survival
1,Cc1ccc(-c2nnc(Nc3ccccc3)c3ccccc23)cc1S(=O)(=O)NCc1nc2ccccc2[nH]1,inactive: 73%
2,Cc1ccc(C)c(N2CCN(CCCNC(=O)c3ccc4nc(N5CCCCC5)sc4c3)CC2)c1,inactive: 71%
3,COc1ccc(C(=O)N(c2ccc(OC)cc2)S(=O)(=O)c2ccc3c(c2)n(C)c(=O)n3C)cc1,inactive: 84%
4,Cc1c(CNC2CCCCC2)c(C(=O)O)c(C)n1Cc1ccc(F)cc1,inactive: 85%
5,CCOc1ccc(C(=O)Nc2ccc(-n3nncc3-c3ccccc3)cc2)cc1OCC,inactive: 116%
6,CCC(=O)Nc1ccc2nc3c(=O)n(C)c(=O)n(C)c3nc2c1,inactive: 66%
7,CCC(NC(=O)Nc1cc(OC)ccc1OC)c1c(-n2cccc2)sc2c1CCN(CC)C2 (stereo not drawn),inactive: 88%
8,CC1(C)CC(=O)C2=C(C1)OC1=C(C(=O)CC(C)(C)C1)C2c1ccc2c(c1)OCO2,inactive: 69%
9,CCN(C(=O)c1cc2c(=O)n3cccc(C)c3nc2s1)c1ccc(C)c(C)c1,inactive: 65%
10,Cc1nn(CC(=O)Nc2cc(F)ccc2F)c(=O)c2cccn12,inactive: 94%
11,CC(C)(C)c1ccccc1NC(=O)CSc1nc(-c2cccs2)cc(C(F)(F)F)n1,active: 23%
12,Cc1cc(Nc2ccc(Cl)cc2C)nc(-n2nc(C)cc2C)n1,inactive: 74%
13,CN1CCN(C2=NC(=O)/C(=C\C=C/c3ccccc3)S2)CC1,inactive: 79%
14,CC(C)c1noc(-c2ccccc2OCC(=O)Nc2ccccc2[N+](=O)[O-])n1,active: 44%
15,O=C(NCc1ccc2c(c1)CCN2C(=O)c1ccc(F)cc1)c1ccco1,inactive: 115%
16,Cc1cc(C)n(-c2n[nH]c(=S)c3ccccc23)n1,inactive: 81%
17,CCOc1ccc(-n2c(CC)nc3c(cnn3-c3ccc(Cl)cc3)c2=O)cc1,inactive: 46%
18,COc1ccc(-c2nc3c4ccccc4n(CC(=O)N4CCN(c5ccc(F)cc5)CC4)c(=O)n3n2)cc1,inactive: 79%
19,Cc1cccc(Cn2c(C)c(CNC3CCCCCC3)c(C(=O)O)c2C)c1,inactive: 83%
20,COc1c(Cl)cc(C(=O)N(Cc2ccc(C)o2)C2CCS(=O)(=O)C2)cc1Cl (stereo not drawn),inactive: 79%
21,Cc1oc(-c2cccc(Cl)c2)nc1CN1CCCC(C(=O)N2CCN(c3ccc(F)cc3)CC2)C1 (stereo not drawn),inactive: 111%
22,O=C(Cn1c(=O)c2ccccc2n(CC(=O)Nc2ccc(F)cc2)c1=O)NCCc1ccccc1,inactive: 117%

row,Compound,survival
1,O=C(CSc1nc2c([nH]c3ccccc32)c(=O)n1-c1cccc(Cl)c1)N1CCOCC1,inactive: 70%
2,CCCCCC(=O)Nc1ccc(NC(=O)c2cc3ccccc3o2)c(OC)c1,inactive: 68%
3,Cc1oc2ccc(O)c(CN3CCN(C)CC3)c2c1C(=O)Nc1cccc(C(F)(F)F)c1,inactive: 81%
4,CCOC(=O)c1c(NC(=O)CSc2cn(CCNC(=O)c3ccccc3OC)c3ccccc23)sc2c1CCC2,inactive: 141%
5,CC(C)c1nc2n(n1)C1(CCCCC1)[C@@H]1CCCC[C@@H]1N2,inactive: 111%
6,CCS(=O)(=O)N1CCC(NC(=O)C(Cc2ccc(OC)c(OC)c2)NC(C)=O)CC1 (stereo not drawn),inactive: 100%
7,COCCNC(=S)N1CCC(NC(=O)Nc2ccc(F)cc2)CC1,inactive: 91%
8,CCCNC(=O)C(CC)n1nc(CC)n2c(cc3oc(C)cc32)c1=O (stereo not drawn),inactive: 120%
9,COc1cccc(C(=O)c2cn(CC(=O)NCCc3ccccc3)c3nc(C)ccc3c2=O)c1,inactive: 74%
10,CCCN(CCC)CCCNC(=O)Cn1cc2c(n1)-c1c(oc(C(=O)N3CCCC3)c1C)CC2,inactive: 82%
11,Cc1ccc(C(=O)c2oc3ccccc3c2NC(=O)COc2ccccc2Cl)cc1,inactive: 123%
12,COc1cccc(NC(=O)Cn2c(=O)n(CCc3ccccc3)c(=O)c3c4c(sc32)CN(C(C)=O)CC4)c1,inactive: 69%
13,CCCNC(=O)C1CCN(S(=O)(=O)c2ccccc2)CC1,inactive: 96%
14,CCOC(=O)c1cc2c(=O)n3ccccc3nc2n(CC2CCCO2)c1=NC(=O)c1ccc(OC)cc1OC (stereo not drawn),active: 38%
15,CCOc1ccc(NC(=O)NCc2ccc3c(c2)CCN3C(C)=O)cc1,inactive: 74%
16,O=C(OC1CSc2nc3ccccc3n2C1)c1ccccc1Cl (stereo not drawn),inactive: 95%
17,Cc1cc(C)n(-c2nc3ccccc3nc2N2CCN(c3cccc(C)c3C)CC2)n1,active: -6%
18,CCCOc1ccc(C(=O)Nc2cc(-c3nc4ccccc4[nH]3)ccc2C)cc1,active: 44%
19,COc1cccc(CN2CCCN(Cc3ccc(F)cc3)S2(=O)=O)c1,inactive: 89%
20,COc1cccc(CNC(=O)c2cc3cc(C)ccc3n2C)c1,inactive: 78%
21,Cc1ccc(O)c(NC(=O)C2=CC(c3cccs3)=NS(=O)(=O)N2C)c1,inactive: 76%
22,Cc1ccccc1OCC(=O)Nc1nnc(SCc2cc(=O)n3cccc(C)c3n2)s1,inactive: 84%

row,Compound,survival
1,Cc1ccc(C2C(C(=O)/C=C/c3ccccc3)=C(O)C(=O)N2CCO)cc1 (stereo not drawn),inactive: 78%
2,CC(C)n1c(SCC(=O)c2ccc(F)cc2)nc2c(sc3ccccc32)c1=O,inactive: 68%
3,Cc1cccc2nc(Cn3c(=O)n(-c4ccccc4)c(=O)c4c5c(sc43)CCC5)cc(=O)n12,inactive: 53%
4,COc1ccccc1OCCCn1c(C2CC(=O)N(c3ccc(F)cc3)C2)nc2ccccc21 (stereo not drawn),inactive: 76%
5,CCOc1ccccc1NC(=O)CSc1nnc(CC)c(CC)n1,inactive: 73%
6,CCCN(C(=O)c1c(C)oc2ncn(CC(C)C)c(=O)c12)c1ccccc1C,inactive: 80%
7,COc1ccc(-c2nn(C)c3sc(C(=O)Nc4cc(OC)c(OC)c(OC)c4)cc23)cc1OC,inactive: 87%
8,CCN1c2ccccc2-c2nc(SCC(=O)Nc3cc(OC)cc(OC)c3)ncc2S1(=O)=O,active: 37%
9,Cc1ccc(-n2c(=O)c3ccc(C(=O)NCc4ccccc4Cl)cc3n(Cc3cccc(F)c3)c2=O)cc1,inactive: 74%
10,COc1ccc(N2CCN(C(CNC(=O)c3c(F)cccc3F)c3ccc4c(c3)OCO4)CC2)cc1 (stereo not drawn),inactive: 93%
11,CC1C(=N)N(c2nc(N(C)C)nc(N(C)C)n2)CC1=O (stereo not drawn),inactive: 88%
12,Cc1c(NC(=O)C(C)(C)C)cccc1-c1nc2ccccc2s1,inactive: 49%
13,Cc1ccc(-n2nc(C(=O)N3CCN(c4cc(C)ccc4C)CC3)c3c4ccccc4n(C)c3c2=O)cc1,inactive: 92%
14,Cn1cc(S(=O)(=O)N2CCc3ccccc32)cc1C(=O)Nc1ccc(C(F)(F)F)cc1,inactive: 75%
15,CC1Cc2cc(S(=O)(=O)CCC(=O)Nc3ccc(F)cc3Cl)ccc2N1C(=O)C1CC1 (stereo not drawn),inactive: 60%
16,CCN(CC)c1ccc(NC(=O)Cn2cc3c(n2)CCCC3)c(C)c1,inactive: 121%
17,CCc1ccc(NC(=O)CSc2nc3c([nH]c4ccccc43)c(=O)n2C)cc1,inactive: 83%
18,Cn1c(=O)n(C)c2cc(N3CCCCC3)c(NC(=O)Nc3ccc(Br)cc3)cc21,inactive: 88%
19,C/C(=N/NC(=O)Cc1cccs1)c1ccc(C)cc1,inactive: 80%
20,Cc1cccc(CNC(=O)c2ccc(Cn3c(SCc4cccc(F)c4)nc4cccnc43)cc2)c1,inactive: 83%
21,CCCSc1ncc(Cl)c(C(=O)Nc2ccc(S(=O)(=O)N3CCCCC3C)cc2)n1 (stereo not drawn),inactive: 51%
22,Ic1ccc(Nc2nc3nonc3nc2N/N=C\c2ccco2)cc1,inactive: 53%

row,Compound,survival
1,COc1cccc(NC(=O)C2CC(=O)N(c3ccc(Br)cc3)C2)c1 (stereo not drawn),inactive: 65%
2,CCOc1ccc(-n2cc(-c3ccccc3)c3c(NCc4ccccc4)ncnc32)cc1,inactive: 71%
3,COC(=O)Cc1c(C)c2ccc3c(c2oc1=O)CN(Cc1ccc(Cl)cc1)CO3,inactive: 66%
4,COCCn1c(SCc2ccccc2F)nc2c([nH]c3ccccc32)c1=O,inactive: 99%
5,OC1(C#Cc2ccccc2)CCCCC1,inactive: 104%
6,CC(Oc1ccccc1)C(=O)Nc1ccccc1C(=O)OCc1cc(=O)n2nc(C3CC3)sc2n1 (stereo not drawn),inactive: 119%
7,CCc1nnc(SCC(=O)Nc2ccc(OC)c(OC)c2)c2cc3occc3n12,inactive: 80%
8,CCc1ccc(N2CC(C)Cn3c2nc2c3c(=O)n(CC(=O)O)c(=O)n2C)cc1 (stereo not drawn),inactive: 77%
9,CCOc1ccc(-c2cc(C)n3nc(C(=O)Nc4ccc(C)c(C)c4)cc3n2)cc1,inactive: 56%
10,COC(=O)Cc1c(C)nc2nc(NCc3ccc(Br)cc3)[nH]n2c1=O,inactive: 90%
11,NCC1NCCc2ccccc21 (stereo not drawn),inactive: 68%
12,CCOC(=O)CN(Cc1ccccc1)C(C(=O)NC1CCCCC1)c1ccccc1 (stereo not drawn),active: -1%
13,CCCCSc1nc(O)c(CCC(C)C)c(=O)[nH]1,inactive: 60%
14,Cc1ccccc1OCc1nnc(SCc2cc(=O)c3cc(F)ccc3[nH]2)n1C,inactive: 88%
15,N#C/C(=C\c1cccc(F)c1)c1nc(-c2cc3ccccc3oc2=O)cs1,inactive: 80%
16,CCC1CN(CC(=O)NCc2cccc(Br)c2)c2ccccc2S1 (stereo not drawn),inactive: 97%
17,Cc1ccc(S(=O)(=O)c2cn(CC(=O)Nc3ccc4c(c3)OCO4)c3ccc(C)cc3c2=O)cc1,inactive: 73%
18,COc1ccc(-c2nc3ccccc3o2)cc1NC(=O)c1cc([N+](=O)[O-])ccc1N1CCOCC1,active: 44%
19,COc1ccc(-c2ccc(CCC(=O)O)n2-c2ccccc2C(F)(F)F)cc1,inactive: 116%
20,CCOC(=O)CSc1nc2ccc(NC(=O)COc3ccccc3C)cc2s1,inactive: 85%
21,COC(=O)CN1C(=O)C(O)(CC(=O)c2ccc(F)cc2)c2ccccc21 (stereo not drawn),inactive: 63%
22,Cc1ccc(-n2c3nc(=O)[nH]c(=O)c-3cc3c(C)nn(-c4ccccc4)c32)c(C)c1,inactive: 90%

# Source: PubChem BioAssay AID463173 (ICCB-Longwood Screening Facility, Harvard Medical School, 2010)
